Assay [1] deals with T1, CERS6 with C-terminal HTBH-DDK tag, overexpressed in CCRF-CEM cells (human) (UniProt Q6ZMG9).
T1 sequence: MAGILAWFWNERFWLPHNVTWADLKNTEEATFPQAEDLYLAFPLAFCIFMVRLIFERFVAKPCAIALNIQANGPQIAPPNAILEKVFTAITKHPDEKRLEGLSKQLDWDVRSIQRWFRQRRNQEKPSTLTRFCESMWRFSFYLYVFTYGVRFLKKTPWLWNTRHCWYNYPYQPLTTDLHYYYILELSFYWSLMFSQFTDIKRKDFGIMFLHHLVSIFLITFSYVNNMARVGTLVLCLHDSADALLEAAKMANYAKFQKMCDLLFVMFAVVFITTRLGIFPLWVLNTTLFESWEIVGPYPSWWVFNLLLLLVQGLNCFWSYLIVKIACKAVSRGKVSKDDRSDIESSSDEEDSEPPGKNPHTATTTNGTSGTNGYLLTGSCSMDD
Description: co-IP; two-step purification of CERS6-HTBH-DDK from 2000 µg lysate of CERS6 overexpressing CCRF-CEM cells: Ni-NTA resin overnight at 4 °C, elution with 350 mM imidazole, streptavidin affinity gel 2 h, AcTEV digestion 3 h; modified RIPA with Triton X-114; immunoblot of the final sample. Background: In western blotting, separated proteins are transferred to a membrane and probed.

The chains behind the UniProt entries cited, without tags or fusion partners.
UniProt Q14790: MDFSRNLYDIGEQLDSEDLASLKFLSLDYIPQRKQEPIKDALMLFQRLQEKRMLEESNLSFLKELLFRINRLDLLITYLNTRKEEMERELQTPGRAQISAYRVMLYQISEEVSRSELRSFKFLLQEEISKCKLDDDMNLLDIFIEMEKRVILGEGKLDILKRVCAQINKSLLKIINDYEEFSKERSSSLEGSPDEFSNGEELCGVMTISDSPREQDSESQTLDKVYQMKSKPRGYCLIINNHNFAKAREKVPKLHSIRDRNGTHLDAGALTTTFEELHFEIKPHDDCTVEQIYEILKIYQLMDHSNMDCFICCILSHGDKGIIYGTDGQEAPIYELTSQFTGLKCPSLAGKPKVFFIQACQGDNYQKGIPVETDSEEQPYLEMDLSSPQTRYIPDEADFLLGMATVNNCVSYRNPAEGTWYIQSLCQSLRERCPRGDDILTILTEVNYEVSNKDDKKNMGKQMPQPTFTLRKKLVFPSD

Assay [2] addresses T2, human wild-type CERS6 tagged with mycDDK at COOH terminus (human) (UniProt Q6ZMG9).
T2 sequence: T1 sequence
Description: co-IP; HEK293FT cells transfected with CERS6-mycDDK and Fas-HA or Fas-HA mutants; 1000 µg lysate on anti-FLAG-M2 affinity gel overnight at 4 °C, elution with 3× FLAG peptide; immunoblot.

The target of assay [3] is T2, human wild-type CERS6 tagged with mycDDK at COOH terminus (human). Description: co-IP; co-immunoprecipitation of CERS6 and Fas in cytosolic (includes ER and other organelles) and plasma membrane fractions of transfected 293FT cells.
Assay [4] concerns the target CD95/Fas death receptor, endogenous in CCRF-CEM cells (human (endogenous in CCRF-CEM)) (UniProt P25445). Description: co-IP; 1000 µg lysate of CCRF-CEM cells (non-targeted shRNA, CERS6 knockdown, CERS6 overexpressing) treated with ABT-737; 2 µg anti-Fas antibody overnight at 4 °C, Protein G Plus Agarose; normal IgG as control; immunoblot.
The target of assay [5] is T3, CD95/Fas death receptor, endogenous in CCRF-CEM cells (human (endogenous in CCRF-CEM)), P25445.
T3 chain: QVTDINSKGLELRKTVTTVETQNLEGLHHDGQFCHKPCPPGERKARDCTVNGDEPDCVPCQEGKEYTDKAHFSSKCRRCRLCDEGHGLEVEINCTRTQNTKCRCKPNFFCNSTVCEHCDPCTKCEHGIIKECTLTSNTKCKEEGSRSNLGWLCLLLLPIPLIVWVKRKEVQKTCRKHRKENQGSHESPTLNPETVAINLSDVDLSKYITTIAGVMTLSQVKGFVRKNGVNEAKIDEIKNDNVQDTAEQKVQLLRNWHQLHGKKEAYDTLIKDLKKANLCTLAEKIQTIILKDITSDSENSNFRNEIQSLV
Described as above. The following applies: remark: other sources report otherwise.

These are yes or no findings as the source states them, for the method shown. In cells and extracts the contact can be indirect. Some results given as binding are weak or reduced against the parent protein; the word gives no strength. For some of these results: Tags and fused reporters may be left off the sequences shown.

Regarding “CD95/Fas death receptor, endogenous in CCRF-CEM cells (from UniProt P25445 26-335)”, the binding entry in assay [1] is “binds”.

Take “FADD (Fas-associated protein with death domain), endogenous in CCRF-CEM cells (from UniProt Q13158 1-208)”: the binding result in assay [1] is “no binding”.

For the molecule “FAS full-length tagged with HA (from UniProt P25445 26-335) (receptor)”, the binding result in assay [2] and in assay [3] was “binds” throughout.

Regarding “FAS-HA C199V (from UniProt P25445 26-335) (receptor)”, in assay [2], the binding entry is “binds”.

For “FAS-HA ∆174–236 and 315–335 (from UniProt P25445 26-335) (receptor)”, the binding result in assay [2] is “binds”.

On to “FAS-HA ∆174–314 (from UniProt P25445 26-335) (receptor)”, for which the binding result in assay [2] was “no binding”.

“caspase-8, endogenous in CCRF-CEM cells (from UniProt Q14790 1-479) (enzyme)”: in assay [1], the binding entry is on record as “no binding”.

B1: CERS6, endogenous in CCRF-CEM cells (enzyme, UniProt Q6ZMG9 1-384)
chain: T1 sequence
In the case of B1, the binding entry in assay [4] was “binds”.

B2: FADD (Fas-associated protein with death domain), endogenous in CCRF-CEM cells, Q13158 1-208 (protein)
chain: MDPFLVLLHSVSSSLSSSELTELKFLCLGRVGKRKLERVQSGLDLFSMLLEQNDLEPGHTELLRELLASLRRHDLLRRVDDFEAGAAAGAAPGEEDLCAAFNVICDNVGKDWRRLARQLKVSDTKIDSIEDRYPRNLTERVRESLRIWKNTEKENATVAHLVGALRSCQMNLVADLVQEVQQARDLQNRSGAMSPMSWNSDASTSEAS
Regarding B2, the binding entry in assay [5] was “binds”.

The values are drawn from paper PMC6133972.
